Measured values reported in the supplement of paper PMC4996465.
Viability of KB3-1 and Nalm-6 cells after 48 h of drug alone (CellTiter-Glo), 11 doses over about 4.5 log units. % of DMSO wells, lower = more cell loss; AC50 from the fitted curve, lower = more potent. No active / inactive call. Nalm-6 was screened in two runs. AC50 is listed only for well-fitted inhibitory curves. KB3-1 is a HeLa-derived carcinoma line, Nalm-6 a B-cell precursor leukaemia line.

Assays:
KB3-1 [1] = assay: viability (% of DMSO control); higher = more viable cells
Procedure: (§1)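 Eleven-dose screen of the NCATS MIPE 3 library on cells without co-treatment; CellTiter-Glo after 48 h, as % of DMSO wells.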

Nalm-6 [2] = assay: as above
Procedure: as §1

KB3-1 [3] = assay: log AC50 of viability decrease (48 h) (log10 M); higher = less potent
Procedure: (§2)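 Eleven-dose screen of the NCATS MIPE 3 library on cells without co-treatment; CellTiter-Glo after 48 h. AC50 from the curve fit; only inhibitory curves of the better fit classes are listed.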

Nalm-6 [4] = assay: as above
Procedure: as §2

Row | SMILES | viability (KB3-1 [1]; 0.00078 µM) | viability (KB3-1 [1]; 0.00234 µM) | viability (KB3-1 [1]; 0.00702 µM) | viability (KB3-1 [1]; 0.0211 µM) | viability (KB3-1 [1]; 0.0632 µM) | viability (KB3-1 [1]; 0.19 µM) | viability (KB3-1 [1]; 0.569 µM) | viability (KB3-1 [1]; 1.71 µM) | viability (KB3-1 [1]; 5.12 µM) | viability (KB3-1 [1]; 15.4 µM) | viability (KB3-1 [1]; 46.1 µM) | viability (Nalm-6 [2]; run: 1, 0.00078 µM) | viability (Nalm-6 [2]; run: 1, 0.00234 µM) | viability (Nalm-6 [2]; run: 1, 0.00702 µM) | viability (Nalm-6 [2]; run: 1, 0.0211 µM) | viability (Nalm-6 [2]; run: 1, 0.0632 µM) | viability (Nalm-6 [2]; run: 1, 0.19 µM) | viability (Nalm-6 [2]; run: 1, 0.569 µM) | viability (Nalm-6 [2]; run: 1, 1.71 µM) | viability (Nalm-6 [2]; run: 1, 5.12 µM) | viability (Nalm-6 [2]; run: 1, 15.4 µM) | viability (Nalm-6 [2]; run: 1, 46.1 µM) | viability (Nalm-6 [2]; run: 2, 0.00078 µM) | viability (Nalm-6 [2]; run: 2, 0.00234 µM) | viability (Nalm-6 [2]; run: 2, 0.00702 µM) | viability (Nalm-6 [2]; run: 2, 0.0211 µM) | viability (Nalm-6 [2]; run: 2, 0.0632 µM) | viability (Nalm-6 [2]; run: 2, 0.19 µM) | viability (Nalm-6 [2]; run: 2, 0.569 µM) | viability (Nalm-6 [2]; run: 2, 1.71 µM) | viability (Nalm-6 [2]; run: 2, 5.12 µM) | viability (Nalm-6 [2]; run: 2, 15.4 µM) | viability (Nalm-6 [2]; run: 2, 46.1 µM) | log AC50 of viability decrease (KB3-1 [3]) | log AC50 of viability decrease (Nalm-6 [4]; run: 1) | log AC50 of viability decrease (Nalm-6 [4]; run: 2)
1 | CCCCCCCCCCCCCC(=O)N[C@H](CO)[C@H](O)c1ccc([N+](=O)[O-])cc1 [D-NMAPPD] | 101% | 98.9% | 100% | 102% | 100% | 103% | 102% | 95.6% | 96.4% | 85.1% | 3.29% | 105% | 106% | 118% | 117% | 116% | 121% | 120% | 112% | 102% | 56.4% | 3.55% | 112% | 100% | 106% | 107% | 109% | 112% | 103% | 108% | 106% | 57.7% | 4.72% | -4.63 | -4.83 | -4.78
2 | ClC/1=C(NCCN2CCOCC2)/C(=O)C3=C(C=CC=N3)C1=O [DA-3003-1] | 95.6% | 103% | 99.5% | 104% | 102% | 108% | 102% | 98.6% | 81.2% | 44.6% | 2.66% | 92.4% | 99.2% | 105% | 114% | 106% | 118% | 109% | 78.6% | 5.57% | 5.56% | 1.23% | 106% | 104% | 103% | 110% | 108% | 101% | 87.5% | 75.6% | 2.96% | 3.24% | 1.16% | -4.83 | -5.68 | -5.63
3 | CNC(=O)c1cc(Oc2ccc(NC(=O)Nc3cc(C(C)(C)C)nn3-c3ccc4ncccc4c3)c(F)c2)ccn1 [DCC-2036] | 106% | 105% | 102% | 108% | 102% | 107% | 106% | 104% | 110% | 88.1% | 13.8% | 116% | 123% | 130% | 114% | 114% | 97.4% | 95.5% | 83.8% | 26.7% | 11.8% | 2.98% | 110% | 111% | 116% | 113% | 109% | 107% | 94.9% | 91% | 70.8% | 8.43% | 3.07% | -4.63 | -5.58 | -5.18
4 | CCCCCN(CCC12CC3CC(CC(C3)C1)C2)C(=O)NCCCc1ccncc1 [DE-096] | 102% | 102% | 98.6% | 93.4% | 101% | 103% | 98.8% | 93.4% | 95.5% | 84% | 1.38% | 106% | 104% | 96.9% | 93.2% | 75.4% | 65.2% | 16.8% | 2.46% | -0.869% | -1.27% | -1.86% | 97.9% | 104% | 111% | 104% | 104% | 104% | 117% | 102% | 94.7% | 32% | 1.5% | -4.63 | -6.63 | -4.93
5 | COc1cc2ncnc(Nc3ccc(F)c(Cl)c3)c2cc1NC(=O)/C=C/CN1CCCCC1 [Dacomitinib] | 99.3% | 100% | 96.4% | 96% | 96.3% | 97.8% | 96.6% | 93.9% | 72.4% | 55.9% | -0.968% | 122% | 114% | 112% | 124% | 120% | 115% | 103% | 98.9% | 58.7% | 43% | -1.49% | 118% | 112% | 113% | 116% | 112% | 108% | 113% | 103% | 53.2% | 43.1% | -0.626% | -4.73 | -4.88 | -5.03
